The source of these data is ChEMBL document CHEMBL4888484, “Replenishing the malaria drug discovery pipeline: Screening and hit evaluation of the MMV Hit Generation Library 1 (HGL1) against asexual blood stage Plasmodium falciparum ,using a nano luciferase reporter read-out” (2022).

Out of some 150,000 compounds screened, about 540 (0.36%) showed an effect of 50% or more. Some of the results follow.

The assay deals with Plasmodium falciparum. The experiment in a line: Primary screen in NF54 nanoGlo assay, in single point, at 2uM, 72h; a lower Z score goes with more inhibition. Conditions: timepoint 72 hour. The format is functional, Erythrocyte.
For orientation: % Inhibition means the drop in the measured response relative to a control, in per cent. As to `CCN(C)S(=O)(=O)N[C@H](CO)Cc1ccccc1`, the “% Inhibition” value was -16% and the Z score was found to be 1.81.

On to `Cc1nc(C)n(CC2CCCCN2CC(O)COc2ccccc2)n1` (stereo unspecified), for which the “% Inhibition” value is listed as -9% and the Z score is recorded as 1.64.

In the case of `Cn1ccnc1-c1nccn1-c1ccc2c(c1)CCC2`, the “% Inhibition” value amounted to 12% and the Z score is on record as -1.62.

Regarding `CCN(CC)CCNC(=O)c1cccc(-c2ccc3[nH]ccc3c2)c1`, the “% Inhibition” value was -10% and the Z score is given as 1.29.

For the molecule `Cc1nc(CN2CC(n3cccn3)C2)oc1C`, the “% Inhibition” value is -5% and the Z score came out at 0.57.

`Cc1[nH]c2c(F)cccc2c1CC(=O)N[C@@H](Cc1ccc(O)cc1)C(=O)O`: the “% Inhibition” value was -11% and the Z score is on record as 1.49.

On to `COc1ccc(-c2nn(-c3nc(-c4cnn(C)c4)cc(C(F)(F)F)n3)c(-c3ccc(OC)cc3)c2C)cc1`, for which the “% Inhibition” value is on record as 11% and the Z score is -1.65.

Regarding `CCc1c[nH]c2ncnc(N3CCN([C@@H]4CCNC(=O)CC4)CC3)c12`, the “% Inhibition” value is given as -1% and the Z score was 0.24.

Consider `C[C@@H](CNC(=O)c1ccc2nc(-c3ccc(F)cc3)c(-c3ccc(F)cc3)nc2c1)c1ccccc1`, for which the “% Inhibition” value was -3% and the Z score was 0.42.

In the case of `CN1CCC(NC(=O)c2cnc(-c3ccc4c(c3)OCO4)nc2Nc2ccc(F)cc2)CC1`, the “% Inhibition” value is 45% and the Z score is on record as -3.53.

Consider `CCC(CC)C(=O)Nc1c(C)cc(C)cc1C`, for which the “% Inhibition” value came out at 7% and the Z score is reported as -0.94.

As to `O=C1CN(Cc2nc(CCc3ccccc3)nn2-c2ccccn2)CCN1`, the “% Inhibition” value worked out at 0% and the Z score was -0.02.

`CCC[C@H](C)N1Cc2cccc(NCc3c(C)noc3C)c2C1`: the “% Inhibition” value was found to be 3% and the Z score is on record as -0.51.

On to `CCNc1ccc(Cl)cc1C(=O)NCC(=O)N(C)CC`, for which the “% Inhibition” value was -10% and the Z score was found to be 1.62.

Turning to `Cc1cccc(NC(=O)NCCc2cn(C)c3ncccc23)c1C`, the “% Inhibition” value was -4% and the Z score is 0.49.

As to `CC[C@H](C)C(=O)Nc1ccc(Oc2c(C)c(C(=O)O)nn2C)c(S(=O)(=O)NC(C)(C)C)c1`, the “% Inhibition” value is listed as -1% and the Z score is reported as 0.15.

With `CCN1CC2(CCN(C(=O)c3oc(C)nc3C)CC2)CC1=O`, the “% Inhibition” value is given as -16% and the Z score is 2.1.

Consider `COc1cc(-c2nc(C(=O)NCCc3ccccn3)cs2)ccc1OCc1cccc(F)c1`, for which the “% Inhibition” value was -14% and the Z score is 1.83.

`CC1(O)CC(C(=O)NC2CCC(F)C2)C1` (stereo unspecified): the “% Inhibition” value came out at 2% and the Z score is recorded as -0.28.

`CCCc1cncnc1N[C@H]1CCOC[C@@H]1Oc1ccccn1`: the “% Inhibition” value is -10% and the Z score is 1.38.

For `CC(C)COCCNC(=O)N1CCCC2CN(C)CCC21` (stereo unspecified), the “% Inhibition” value is reported as -4% and the Z score stood at 0.48.

Turning to `COc1ccc(N2C(=O)N[C@@H]3C[C@]2(C)Oc2ccc(C)cc23)c(OC)c1`, the “% Inhibition” value is on record as -7% and the Z score is 1.12.

Regarding `O=S1(=O)CCC(CNc2ncc(Br)cn2)CC1`, the “% Inhibition” value is reported as -12% and the Z score is reported as 1.66.

For the molecule `Cc1ccc(-n2cnnc2)c(C(=O)N2CCN(C3CC3)C[C@H](C)C2)c1`, the “% Inhibition” value is 5% and the Z score is -0.79.

As to `Clc1ccc(Cl)c(OCCN2CCC[C@H](c3nncn3C3CC3)C2)c1`, the “% Inhibition” value is -24% and the Z score stood at 3.43.

For the molecule `C[C@](O)(CCc1ccccc1)C(=O)NCCc1ncc[nH]1`, the “% Inhibition” value was 32% and the Z score is -4.62.

Consider `CN(c1ccc(Br)cc1)c1ncnc2c1nc1n2CCCCC1`, for which the “% Inhibition” value is reported as -3% and the Z score amounted to 0.6.

As for `CCC(C)C(OC)C(=O)N1CC(=O)Nc2cnccc21` (stereo unspecified), the “% Inhibition” value is listed as 6% and the Z score was -1.

Turning to `COc1cccc([C@H](C)N2CCC(c3nc(-c4ccccn4)no3)CC2)c1`, the “% Inhibition” value is listed as -1% and the Z score is reported as 0.17.

Take `COc1ccccc1CC(=O)N1C[C@H]2CC[C@@H](C1)N(CC=C(C)C)C2=O`: the “% Inhibition” value amounted to 3% and the Z score is -0.49.

`CCC(C)(C)C1CCC2(CC1)C[C@@H]2c1nc(C2(OC)CCOCC2)no1` (stereo partly specified): the “% Inhibition” value is reported as -3% and the Z score amounted to 0.55.

Consider `C#CCN(C)CC[C@@H]1CC[C@H](O)[C@@H](C(=O)N(C)Cc2ccccc2)O1`, for which the “% Inhibition” value worked out at 1% and the Z score is given as -0.1.

As for `CCCN1CCCN(C2CCN(c3ccc(-n4cccn4)cc3)CC2)CC1`, the “% Inhibition” value is recorded as -8% and the Z score was 1.04.

In the case of `CCOC1CC(NC(=O)c2nnc(C)s2)C12CCCO2` (stereo unspecified), the “% Inhibition” value was -16% and the Z score was found to be 2.06.

As to `O=C(O)c1csc(NC(=O)C2CCC=CCC2)c1`, the “% Inhibition” value stood at 3% and the Z score is -0.41.

In the case of `Cc1sc(C=Cc2cn(C)nc2C(F)F)nc1C(=O)O`, the “% Inhibition” value is given as -6% and the Z score is on record as 0.56.

For `COC[C@@]1(C)CCN(Cc2csc(N(C)C3CC3)n2)C1`, the “% Inhibition” value amounted to 0% and the Z score is -0.04.

Take `Cc1[nH]c(=O)c(C(=O)NCCCN(C)c2ccccc2)c(C)c1C`: the “% Inhibition” value was -4% and the Z score worked out at 0.74.

In the case of `O=C(NCCc1c[nH]c2cc(F)c(Cl)cc12)[C@H]1CC1(F)F`, the “% Inhibition” value stood at 2% and the Z score is on record as -0.36.

As for `CCOC(=O)N(C)CC(=O)Nc1ncc(C)s1`, the “% Inhibition” value is reported as 16% and the Z score was -2.04.

As to `C[C@@H](c1cccnc1)N(C)Cc1cc(CN2CCCC2)cs1`, the “% Inhibition” value is on record as -7% and the Z score was determined as 0.82.

`COc1ccnc(CN2CCC3(CCC(=O)N(CCc4ccccc4)C3)CC2)c1`: the “% Inhibition” value is recorded as 0% and the Z score was found to be 0.

As for `CN(C)C(=O)c1ccc(N2C[C@@H](C(F)(F)F)OC(C)(C)C2)nc1`, the “% Inhibition” value was 10% and the Z score is listed as -1.29.
